From the supplement of paper PMC4967469
A lower IC50 marks a more sensitive line; fits outside the tested doses are given as limits. AUC sums up the same curve from the lowest dose to the 256-fold higher top dose: 1 means no effect, lower means more sensitive. For part of these data: The top dose, if marked as inferred, was calculated from the reported fits. For part of these data: Drugs with an entry number were screened twice under separate entries, and the two screens often disagree.

Assays:
Assay in all cases: Viability of human cancer cell lines after 72 h of drug (GDSC screen)
[1] = compound: CC1(C)CNc2cc(NC(=O)c3cccnc3NCc3ccncc3)ccc21 [AMG-706]; conditions: top dose 2 µM; top dose inferred
Description: (§1)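 Human cancer cell lines in 384-well plates, medium with 10% serum, drug for 72 h over a 256-fold dose range (nine 2-fold or five 4-fold steps up to the top dose). Adherent lines were fixed and stained with the nucleic acid dye Syto60, suspension lines read with resazurin; signal relative to control wells, capped at 0 and 100%. One two-parameter sigmoid per drug and line, fitted in a mixed model over all curves with the slope shared within a line.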

[2] = compound: CC(=O)O[C@@]12CO[C@@H]1C[C@H](O)[C@@]1(C)C(=O)[C@H](O)C3=C(C)[C@@H](OC(=O)[C@H](O)[C@@H](NC(=O)OC(C)(C)C)c4ccccc4)C[C@@](O)([C@@H](OC(=O)c4ccccc4)[C@H]21)C3(C)C [Docetaxel]; conditions: top dose 0.0125 µM
Description: as §1

[3] = compound: c1ccc2c(CCNc3ccc(Nc4ccncc4)cc3)c[nH]c2c1 [JNJ-26854165]; conditions: top dose 10 µM
Description: as §1

[4] = compound: Cc1sc2c(c1C)C(c1ccc(Cl)cc1)=N[C@@H](CC(=O)OC(C)(C)C)c1nnc(C)n1-2 [JQ1]; conditions: top dose 1 µM; screen: GDSC drug entry 1218; top dose inferred
Description: as §1

[5] = compound: CCOc1nc(NC(=O)Cc2cc(OC)ccc2OC)cc(N)c1C#N [JNK Inhibitor VIII]; conditions: top dose 10 µM; top dose inferred
Description: as §1

[6] = compound: Cc1ccc(C(=O)N(CCCN)[C@@H](c2nc3cc(Cl)ccc3c(=O)n2Cc2ccccc2)C(C)C)cc1 [SB-715992]; conditions: top dose 0.128 µM; top dose inferred
Description: as §1

[7] = compound: COCC[n+]1c2c(n(Cc3cnccn3)c1C)C(=O)c1ccccc1C2=O [YM155]; conditions: top dose 5.12 µM
Description: as §1

[8] = compound: O=C(/C=C/c1cccc(S(=O)(=O)Nc2ccccc2)c1)NO [Belinostat]; conditions: top dose 20 µM; top dose inferred
Description: as §1

[9] = compound: CN1CCN(c2ccc([N+](=O)[O-])c3no[n+]([O-])c23)CC1 [NSC-207895]; conditions: top dose 20 µM; top dose inferred
Description: as §1

Row | Cell Line | AUC [1] | IC50 [1] | AUC [2] | IC50 [2] | AUC [3] | IC50 [3] | AUC [4] | IC50 [4] | AUC [5] | IC50 [5] | AUC [6] | IC50 [6] | AUC [7] | IC50 [7] | AUC [8] | IC50 [8] | AUC [9] | IC50 [9]
1 | BALL-1 (B-cell leukaemia, suspension) | 0.997 | > 2000 nM | 0.967 | > 12.5 nM | 0.9 | 6570 nM | 0.996 | > 1000 nM | 0.995 | > 10000 nM |  |  |  |  |  |  |  | 
2 | BT-549 (breast, adherent) | 0.975 | > 2000 nM | 0.674 | 2.91 nM | 0.758 |  |  |  | 0.971 | > 10000 nM |  |  |  |  |  |  |  | 
3 | CADO-ES1 (Ewing sarcoma, suspension) | 0.987 | > 2000 nM | 0.987 | > 12.5 nM | 0.944 | > 10000 nM | 0.966 | > 1000 nM | 0.98 | > 10000 nM | 0.829 | 81.8 nM | 0.894 | > 5120 nM | 0.216 | 181 nM | 0.81 | 10700 nM
4 | CL-34 (large intestine, adherent) | 0.982 | > 2000 nM | 0.947 | > 12.5 nM | 0.964 | > 10000 nM | 0.985 | > 1000 nM | 0.987 | > 10000 nM |  |  |  |  |  |  |  | 
5 | CL-40 (large intestine, adherent) | 0.976 | > 2000 nM | 0.87 | > 12.5 nM | 0.936 | > 10000 nM | 0.966 | > 1000 nM | 0.976 | > 10000 nM |  |  |  |  |  |  |  | 
6 | CML-T1 (chronic myeloid leukaemia, suspension) | 0.992 | > 2000 nM | 0.877 | 8.94 nM | 0.853 | 5810 nM | 0.941 | > 1000 nM | 0.992 | > 10000 nM |  |  |  |  |  |  |  | 
7 | COR-L321 (lung, suspension) | 0.986 | > 2000 nM | 0.964 | > 12.5 nM | 0.94 | > 10000 nM | 0.986 | > 1000 nM | 0.989 | > 10000 nM | 0.676 | 24.7 nM | 0.027 | < 20 nM | 0.152 | 106 nM | 0.61 | 2500 nM
8 | D-423MG (glioma, adherent) | 0.981 | > 2000 nM | 0.603 | 1.6 nM | 0.892 | > 10000 nM | 0.978 | > 1000 nM | 0.957 | > 10000 nM | 0.903 | > 128 nM | 0.033 | < 20 nM | 0.384 | 557 nM | 0.732 | 6740 nM
9 | D-566MG (glioma, adherent) | 0.982 | > 2000 nM | 0.348 | 0.299 nM | 0.799 | 4720 nM | 0.972 | > 1000 nM | 0.979 | > 10000 nM | 0.987 | > 128 nM | 0.03 | < 20 nM | 0.367 | 539 nM | 0.829 | 12200 nM
10 | DOV13 (ovary, adherent) | 0.964 | > 2000 nM | 0.661 | 2.36 nM | 0.873 | > 10000 nM | 0.953 | > 1000 nM | 0.954 | > 10000 nM | 0.981 | > 128 nM | 0.616 | 702 nM | 0.984 | > 20000 nM | 0.962 | > 20000 nM
11 | EMC-BAC-1 (lung adenocarcinoma, adherent) | 0.977 | > 2000 nM | 0.593 | 1.46 nM | 0.82 | 6790 nM | 0.982 | > 1000 nM | 0.975 | > 10000 nM | 0.795 | 69.2 nM | 0.237 | 48.8 nM | 0.576 | 2070 nM | 0.923 | > 20000 nM
12 | ESO51 (oesophagus, semi-adherent) | 0.941 | > 2000 nM | 0.81 | 10.2 nM |  |  | 0.971 | > 1000 nM | 0.958 | > 10000 nM | 0.879 | > 128 nM | 0.255 | 46.3 nM | 0.439 | 798 nM | 0.925 | > 20000 nM
13 | EW-22 (Ewing sarcoma, adherent) | 0.964 | > 2000 nM | 0.86 | 9.81 nM | 0.816 | 5250 nM | 0.985 | > 1000 nM | 0.983 | > 10000 nM |  |  |  |  |  |  |  | 
14 | IGROV-1 (ovary, adherent) | 0.975 | > 2000 nM | 0.763 | 6.71 nM | 0.791 | 7120 nM | 0.973 | > 1000 nM | 0.976 | > 10000 nM |  |  |  |  |  |  |  | 
15 | JEKO-1 (B-cell lymphoma, suspension) | 0.987 | > 2000 nM | 0.824 | 7.03 nM | 0.918 | > 10000 nM | 0.603 | 118 nM | 0.987 | > 10000 nM |  |  |  |  |  |  |  | 
16 | JHOS-4 (ovary, adherent) | 0.931 | > 2000 nM | 0.789 | 8.42 nM | 0.92 | > 10000 nM |  |  | 0.957 | > 10000 nM |  |  |  |  |  |  |  | 
17 | KARPAS-1106P (B-cell lymphoma, suspension) | 0.993 | > 2000 nM | 0.879 | 9.07 nM | 0.858 | 6010 nM | 0.793 | 370 nM | 0.993 | > 10000 nM |  |  |  |  |  |  |  | 
